# Experimental data from the BET-seq Pho4 binding data (Le et al. 2018).
# The other results are listed elsewhere or left out. Values were computed here from the reads of four pooled replicates and scatter widely.
# Target: T1, Pho4 (S. cerevisiae) (UniProt P07270)
# T1 sequence: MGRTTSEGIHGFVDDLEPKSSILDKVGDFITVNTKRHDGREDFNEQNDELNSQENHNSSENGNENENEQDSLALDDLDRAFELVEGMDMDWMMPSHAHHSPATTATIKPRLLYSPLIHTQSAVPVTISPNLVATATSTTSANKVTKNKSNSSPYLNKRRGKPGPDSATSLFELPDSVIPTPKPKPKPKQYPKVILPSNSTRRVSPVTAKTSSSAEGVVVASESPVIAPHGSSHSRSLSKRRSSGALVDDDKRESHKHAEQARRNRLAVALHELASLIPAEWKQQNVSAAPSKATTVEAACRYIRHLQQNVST
# Experiment: relative binding free energy (BET-seq); higher = weaker binding
# Conditions: reference: library average
row,Sequence,relative binding free energy [kcal/mol]
1,TAAGTCACGTGGTGGC,0.02
2,GGAGTCACGTGCAGGG,0.07
3,TGGTCCACGTGTAGAG,0.13
4,TTTTCCACGTGGACGG,0.18
5,TTTGGCACGTGGAAAG,0.07
6,AGTAGCACGTGGCGAG,-0.18
7,AAGTACACGTGGTAAT,0.09
8,TGGGACACGTGATGGT,0.04
9,AATAGCACGTGGGGCG,-0.26
10,TAGTTCACGTGTGTTT,0.34
11,CGTGGCACGTGGTAGG,-0.17
12,TCAGTCACGTGGTGTT,-0.04
13,GCTTTCACGTGGGGTT,0.27
14,CAATTCACGTGATGTT,0.27
15,TGTGACACGTGAAATG,0.19
16,TAGTACACGTGACGTT,0.16
17,TTGGACACGTGTATGG,0.06
18,AGGGGCACGTGGGTGC,-0.27
19,TTTATCACGTGTCATG,0.33
20,GGATTCACGTGAAGTA,0.29
21,GGGTTCACGTGATTCA,0.33
22,TGGTGCACGTGTTTCA,0.07
23,AGCTGCACGTGGGCGG,-0.26
24,GTTGGCACGTGTCAAT,0.01
25,GTATGCACGTGGTAGA,-0.08
26,GGATTCACGTGTGCGT,0.22

row,Sequence,relative binding free energy [kcal/mol]
1,GGTGACACGTGATGTA,0.14
2,TAGATCACGTGGCTTG,0.1
3,CTATACACGTGTTGTT,-0.08
4,ATGTTCACGTGCTATG,0.23
5,GTGGGCACGTGGGATT,-0.08
6,CTGGGCACGTGCGATG,-0.1
7,ATGCGCACGTGGAGGC,-0.02
8,TTCTTCACGTGAGCAG,0.61
9,GTAGCCACGTGCGTGT,-0.06
10,GGTGACACGTGCAAGT,0.17
11,TATGGCACGTGAAGAA,0.1
12,AAGTACACGTGCTGGT,-0.08
13,ATGGGCACGTGTCGGT,-0.12
14,GATTTCACGTGAGGAA,0.39
15,TAACTCACGTGATGGT,0.29
16,TCGAGCACGTGGGAGG,-0.18
17,TCGGCCACGTGTTGTA,0.01
18,GGGGACACGTGTGAAT,0.22
19,AGGGTCACGTGCTTAG,0.08
20,CGATTCACGTGGGCGT,0.28
21,TGTGGCACGTGTTACT,-0.2
22,TTTCGCACGTGGGGTG,-0.13
23,TGTGTCACGTGAGTTG,0.21
24,GATTTCACGTGAGAGA,0.54
25,TGGTGCACGTGAGTAT,0.16
26,GTATGCACGTGTTATG,0.04

row,Sequence,relative binding free energy [kcal/mol]
1,AGCGTCACGTGAGATT,0.22
2,TAGGGCACGTGGTTAT,-0.11
3,TTGTTCACGTGAGTTG,0.42
4,TTAGGCACGTGGAACG,-0.13
5,GCGTGCACGTGGGAAA,0.04
6,GGCTTCACGTGCTGGA,0.41
7,TAGTGCACGTGTGTAA,0.01
8,TAGTTCACGTGAAAAT,0.35
9,CGAGGCACGTGTAAGA,0.24
10,AGTGACACGTGTACAG,0.02
11,AGGGCCACGTGCTGTG,-0.2
12,TGTCGCACGTGTGCGG,-0.03
13,TTGATCACGTGCGTAT,0.2
14,AATTTCACGTGATGCG,0.37
15,TTGGTCACGTGACGCA,0.42
16,GGTGCCACGTGGCGTA,-0.14
17,AGTTTCACGTGGTCTG,0.27
18,TTATGCACGTGTCAGG,0
19,TGAGTCACGTGTAAGG,0.23
20,AGTAGCACGTGTAGGT,-0.05
21,TAATGCACGTGGCGTA,-0.1
22,TATCGCACGTGTGTGC,0.03
23,TCGTGCACGTGGATGG,-0.05
24,TTAAACACGTGGGTAC,0.06
25,GCTTGCACGTGTTCGT,0.07
26,AGTATCACGTGGGTTT,0.08

row,Sequence,relative binding free energy [kcal/mol]
1,AGTGTCACGTGATGGA,0.19
2,CGTTTCACGTGGTATA,0.19
3,AATTTCACGTGTAGTT,0.28
4,GGATGCACGTGCAGTT,0.01
5,GCGGACACGTGGTTGC,0.28
6,TTAATCACGTGTTCAT,0.19
7,GGTGCCACGTGAGCGT,0.15
8,GGGTGCACGTGTTGGC,0.05
9,GATGGCACGTGTCGTA,0.03
10,CTTTGCACGTGGTGAT,0.02
11,TTCGGCACGTGGCTTT,-0.2
12,GTATGCACGTGTAAAT,0.37
13,ATTTTCACGTGCGGTT,0.16
14,ATTAGCACGTGAGGGA,0.16
15,GGCGGCACGTGCAGGA,0.03
16,TTCGACACGTGGTTAT,-0.09
17,GTGGTCACGTGAATCT,0.36
18,GTTGTCACGTGGTAGG,0.08
19,TTTGGCACGTGGAATA,0.05
20,TGGTGCACGTGTCAAT,-0.03
21,TATTACACGTGTCTGG,0.09
22,TAAGGCACGTGTGTCT,-0.09
23,TTCGTCACGTGTAGAG,0.12
24,ATTTACACGTGATATT,0.23
25,GGGTGCACGTGAGCAA,0.17
26,GGGAGCACGTGTTTGG,-0.07

row,Sequence,relative binding free energy [kcal/mol]
1,GTTTACACGTGTTCAG,0.19
2,GAGGTCACGTGCGGAT,0.12
3,TTGATCACGTGTGAGC,0.19
4,AGTGTCACGTGTGCGG,0.17
5,CAGTTCACGTGTAGGA,0.23
6,CTGGGCACGTGAACGG,0.18
7,GTTAGCACGTGGGTCA,-0.16
8,ACTGTCACGTGGTGGG,0
9,AGGGCCACGTGTGCTG,-0.01
10,AGAGACACGTGTGGTG,-0.04
11,GGAGGCACGTGGCGTG,-0.2
12,GGCCTCACGTGTTTGT,0.18
13,TGTAGCACGTGAGAAG,0.19
14,AAGTTCACGTGTTGGA,0.3
15,GATAGCACGTGGATAG,0.05
16,AGGGTCACGTGATGTG,0.27
17,GGTATCACGTGGAAAG,0.28
18,ATCGGCACGTGGGTTA,-0.22
19,TATGGCACGTGGGGTC,-0.29
20,GCGGGCACGTGGAGGG,-0.16
21,GGGTGCACGTGTGGAC,0.18
22,TAGAGCACGTGTGCAT,-0.12
23,TGATGCACGTGTAAAT,0.24
24,CTGCACACGTGGAGTG,0.08
25,AGTGTCACGTGTGCTG,0.06
26,GGGGTCACGTGATGTG,0.36

row,Sequence,relative binding free energy [kcal/mol]
1,AGGCTCACGTGTCGGG,0.34
2,TGATGCACGTGAGATT,0.19
3,TGGATCACGTGGTAGA,0.16
4,GGGGTCACGTGAATCG,0.28
5,TGGCGCACGTGCGGTG,-0.07
6,ACGATCACGTGTGGTT,0.18
7,ATTCGCACGTGGGTCA,-0.09
8,ATTAGCACGTGGTCGG,-0.06
9,AGATACACGTGTCGGG,-0.04
10,GGGATCACGTGAGTTT,0.43
11,TAGGACACGTGGGGTT,-0.01
12,TTCGGCACGTGAGGTG,0.16
13,CTATGCACGTGGGGTA,-0.26
14,GGTGGCACGTGGTCAG,-0.13
15,TGGTCCACGTGGGCGT,-0.19
16,CGTCTCACGTGAGGGT,0.24
17,TAAAGCACGTGGGGAG,-0.17
18,ATTTGCACGTGGGTGA,-0.13
19,AGGTTCACGTGTGGGC,0.25
20,AGGTGCACGTGTGCAG,-0.1
21,ATATTCACGTGAGTTG,0.37
22,AAGGACACGTGGTGTT,-0.1
23,TAAATCACGTGTCGTT,0.21
24,TTCGCCACGTGTTAGG,0.02
25,TATGACACGTGCGTGA,-0.06
26,GAAGTCACGTGGAGTG,0.22

row,Sequence,relative binding free energy [kcal/mol]
1,ACAGGCACGTGGGAGT,-0.25
2,GGATCCACGTGGGATT,0.09
3,ATGAGCACGTGCGGTC,-0.09
4,GAGAGCACGTGTGGCA,-0.06
5,AAGTTCACGTGGGGAA,0.12
6,CGGTACACGTGTGAGT,0.22
7,AGATTCACGTGGGGTC,0.28
8,TAGACCACGTGGTTGT,-0.16
9,TTTAGCACGTGAGGAT,0.19
10,GCTTGCACGTGGCAGG,-0.2
11,TGAGTCACGTGGGCCG,-0.03
12,TGATTCACGTGATTTA,0.28
13,GTTACCACGTGGTGAG,-0.04
14,ATTGACACGTGTCGGA,-0.06
15,AGTTCCACGTGGTATG,0.03
16,AGAATCACGTGGTGTA,0.09
17,CGAGGCACGTGTGGTG,-0.06
18,TGGTTCACGTGTAGAA,0.31
19,GTTGACACGTGAAGGG,0.34
20,TGAAGCACGTGTGATA,0.05
21,ACGTTCACGTGTTGTG,0.22
22,GTACGCACGTGTGTGA,-0.06
23,GTTTGCACGTGTTCCG,0.18
24,AGTAGCACGTGGTCTA,-0.06
25,GGGTGCACGTGATAAA,0.12
26,AATGTCACGTGGGCTT,0.04

row,Sequence,relative binding free energy [kcal/mol]
1,GGGGTCACGTGTTTGG,0.24
2,TATATCACGTGATTGG,0.23
3,TTAATCACGTGTAGCT,0.13
4,AGTGTCACGTGGTATC,0.08
5,AACTTCACGTGGGTTA,0.12
6,TATCGCACGTGGGATG,-0.12
7,TGGTGCACGTGAATAG,0.19
8,CTTTACACGTGAATGG,0.36
9,ATTGTCACGTGTATCT,0.19
10,AGCTTCACGTGTAGTG,0.22
11,GGACGCACGTGAAGGG,0.14
12,CGTTGCACGTGAAGGA,0.42
13,TTGGCCACGTGAAGCG,0.34
14,AGTTCCACGTGGGTGT,-0.04
15,AGGCACACGTGGGCTG,-0.1
16,CGTGGCACGTGGAGCG,-0.17
17,GTAAGCACGTGGGTCG,-0.19
18,GGTTACACGTGATGGC,0.28
19,ATGATCACGTGGGTGG,-0.06
20,AGACGCACGTGGTTTA,-0.01
21,TGGTACACGTGGGACT,0.1
22,GTGTACACGTGTGTTA,0.13
23,TTAATCACGTGTATGA,0.19
24,GGCGTCACGTGAGGGA,0.22
25,AATTTCACGTGGTAGA,0.1
26,TTCATCACGTGGGTTG,-0.05

row,Sequence,relative binding free energy [kcal/mol]
1,TTATCCACGTGAGGTG,0.35
2,TAGAACACGTGTCGTT,0.17
3,TATGGCACGTGGTGCA,-0.28
4,TTCAGCACGTGTTATG,-0.01
5,GTGTGCACGTGGGGAG,-0.1
6,TGGAGCACGTGTAAAG,0.06
7,TTGGGCACGTGGCTGG,-0.18
8,TTCGGCACGTGTAATA,0.22
9,AATAACACGTGGGGGA,-0.24
10,TTTATCACGTGGTCGA,0.07
11,TCAGGCACGTGTGTAT,-0.11
12,TTGAACACGTGCGGGC,0.29
13,ATTTCCACGTGATAGG,0.23
14,ATATGCACGTGGATTT,0.07
15,CTAGGCACGTGCGGTT,-0.17
16,GGGTTCACGTGTAGGT,0.3
17,ATTGACACGTGAGTGG,0.16
18,ATGTTCACGTGTTAGC,0.23
19,ACGGTCACGTGGGGCG,-0.27
20,CGGTACACGTGGAGTG,-0.02
21,AATAGCACGTGTTGGT,-0.11
22,ATTGTCACGTGAGTAC,0.36
